# From the supplement of paper PMC11417369
# ± gives the standard deviation of the averaged measurements. The list shows a part of the results.
# Tested on: PfAP2-I AP2 domain 3 (GST-tagged)
# Test: gcPBM binding intensity (ln(normalized median fluorescence intensity)); higher = stronger DNA binding
# How it was run: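 Alexa488 anti-GST antibody, scanned at 488 nm, detected GST-tagged P. falciparum DNA-binding domains that had been expressed in E. coli and incubated for 1 h on an Agilent 4 × 180k array. The array carried primer-extended double-stranded 36-bp intergenic genomic probes and negative controls. Binding intensity is the highest Masliner-normalised natural-log median intensity across replicate spots of either orientation of each probe.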
row,Sequence,gcPBM binding intensity (ln)
1,ACATAGCAATGTTTCACACACAAGAAAAAATACAAT [CACACA_site2379],7.87 ± 0.64
2,GAAATGTGGTAATATACACACACGCATATATTTATA [CACACA_site6285],7.75 ± 0.45
3,TTTGAACTCTTAAGTGGTACAAATTTGTATTTTCTC [XGTACX_site2322],7.91 ± 0.5
4,TATAAATAAAAATATACACACTGTATTATTGTAATA [CACACA_site7721],7.58 ± 0.3
5,AATGGAATATATATTTGTACATAAATATTATAATAA [XGTACX_site8524],7.7 ± 0.52
6,ACATGTTAACTAAATGTACACACCTATGTTGATGTA [CACACA_site1821],7.82 ± 0.52
7,TTTACTCCTACAACATGTACATAAAATAAATTTTTT [XGTACX_site5010],8.12 ± 0.45
8,TTATTTACAACTTTTTTTTTTTTATTTTATTTTATT [CACACA_negctrl_site341],7.56 ± 0.67
9,CATTCTTGTTTAAAAAGTACATAAACATATATATAT [XGTACX_site1751],8.8 ± 0.5
10,TAAATTAATATGTATCGTACAATATATAAAACGATG [XGTACX_site2818],7.67 ± 0.46
11,AAAAAAAATAAAGAGAAAAAAAAAAGAAAATTATAT [GTGCAC_negctrl_site550],7.55 ± 0.66
12,ACATATTATATAACTCGTACTCGTAAAATATGTTGT [XGTACX_site2240],7.79 ± 0.5
13,TTCTTCTGTTTTATTACACACCATTTTGCGTATACA [CACACA_site2070],8.46 ± 0.64
14,GTTCTTTTATATATTTGTACATATTTATATATATTG [XGTACX_site4078],8.45 ± 0.43
15,GTCATAAATGTACGCACACATACATAAACATATACA [CACACA_site650],8.66 ± 0.28
16,ATATTATATATATAGGTGCGAGTATTTTATAAATAT [GTGCAC_site9889],8.49 ± 0.47
17,TAAGTATACACATACACACACACACTAATAAAAAAA [CACACA_site8035],8 ± 0.41
18,TATACACCCGGACACACACACATATATATATATATA [CACACA_site5030],9.33 ± 0.21
19,AAATATAAAATTTATTGTACATTATATATAATATAT [XGTACX_site1416],7.67 ± 0.28
20,TGATATATTTATATTACACACTTAAACGAAAAAAAA [CACACA_site3021],7.89 ± 0.48
21,TATTATAATATTTATACACACATAATTTTGATAAAT [CACACA_site583],7.68 ± 0.4
22,ATATATATATTATATGCACACGTTAAAATTTCATAT [CACACA_site4552],9.58 ± 0.27
23,TAAAAATATTAATAAACACACAATGAGATATTGAAT [CACACA_site3153],7.49 ± 0.79

row,Sequence,gcPBM binding intensity (ln)
1,AAAATTCATATATACACACACGCACATATATATATA [CACACA_site90],9.38 ± 0.2
2,GAATGTCTAATTTTGATGCACACTTTTGTGCAATTA [CACACA_site2902],9.95 ± 0.35
3,TTATATTATTCGTGTGTGCACGATATTTCATAATTG [GTGCAC_site9767],10.1 ± 0.2
4,CAAAAAATTCAACACACACACACACCGATAAATAAA [CACACA_site8330],7.83 ± 0.22
5,TTGTCCCTATAAGGGGAACACACATAAATGAATATA [CACACA_site8250],7.62 ± 0.46
6,AAAACTATTTGTAAAAGTACATAATAAATAAATAAA [XGTACX_site7922],7.83 ± 0.59
7,ATAATGTTTTATAATACACACATTATGTATATAAAT [CACACA_site4077],7.92 ± 0.39
8,CGTATTTATAGAATTACACACCATATTGTAATTATT [CACACA_site7722],7.82 ± 0.44
9,GTGTTTTTATTATTTTGTACACATATATTTAATATT [XGTACX_site2109],8.85 ± 0.11
10,TTTTTTTTGTAATACGCATGCTAAAAATATTTATAA [TGCATGCA_site656],7.84 ± 0.59
11,ATTTAAATAAGATATACACACAAGTAGAAGACTATG [CACACA_site806],7.8 ± 0.7
12,TTTTCGATGTTGGTAGGAAGTTTGGTACACGTAGTA [TGCATGCA_negctrl_site145],8.05 ± 0.49
13,ATAACTTTATTCAGTTTGCACTTTTATAACAAAAGA,9.57 ± 0.28
14,ATTTTTTATATTTAGTGTACATGTTTTAATTTATAA [XGTACX_site7512],8.21 ± 0.63
15,CTTATATAATTCGATAGTACATATTTTTATATATAT [XGTACX_site4045],7.88 ± 0.47
16,TATATATATATAAGCACACAAACAAAAAAAATTATA [CACACA_site3897],9.2 ± 0.19
17,TTTTCTTTTTTTTTTGTGCACATAATATATAATTAT,10.8 ± 0.14
18,ATATTTTTTAGTAAGACGAAATAAATAAATCTTTAT [CACACA_negctrl_site1778],7.44 ± 0.65
19,ATTGAATATGTAAATGCACACCAAAAAAAAAAAAAA [CACACA_site9189],9.68 ± 0.3
20,TTTTTCCTATTTTTAGTGCACATATAAATAAATAAA [GTGCAC_site9821],11.6 ± 0.23
21,TATATATATATATATTGTACACATTGTGTTTAAATA [XGTACX_site5104],9.43 ± 0.44
22,AATAGAATGTAATATACACACATATATTTCTCTTTT [CACACA_site2630],7.47 ± 0.45
